This list was built around the results that the source calls inconclusive (neither active nor inactive); the mix of calls is not that of the screen. For part of these data: A potency beside an inconclusive call is a rough fit, not a confirmed value. Active and inactive are the calls of the source. Unless noted, the call rests on the fitted dose curve; in most records, active means well fitted curve in the direction sought with a large enough effect; inconclusive means small, poorly fitted or top-dose-only effect, or another doubt; inactive means no such curve, though single readings can be large; an effect the other way counts as inactive or inconclusive.
Tests used:
[1] = Cell Viability - Hek293 (AID 427;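 active means compounds whose dose-response curve shows a full or clear partial loss of cell viability, called from curve shape rather than a numeric limit; inconclusive means weak partial curves or an effect only at the top dose; inactive means no dose-dependent loss of viability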;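 further: potency means the concentration at half of the fitted maximal effect; cells exposed to compound for 40 hours at 37 °C before reading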); settings: qHTS
In short: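 HEK293 cells in complete medium were exposed to compound for 40 hr at 37 °C, then cellular ATP was read by CellTiter-Glo luminescence. Data were normalized to DMSO (basal) and 100 uM tamoxifen (100% inhibition), and AC50 came from Hill fits.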

[2] = Cell Viability - NIH 3T3 (AID 541); settings: NIH 3T3 cell viability, qHTS; activity change, negative = cytotoxicity: at 92.2 µM (top of the series);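 further: plate controls were DMSO alone for no effect and tamoxifen positive control for full effect; nearly all actives have a fitted effect of over 25% in size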
In short: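 Mouse NIH 3T3 fibroblasts, 1000 cells/well, rested 5 hr at 37 °C, then exposed to compound for 40 hr at 37 °C in complete medium. Viability read as intracellular ATP by CellTiter-Glo luminescence; AC50 from Hill-equation fits of concentration-response data.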

[3] = Cell Viability - HUV-EC-C (AID 542); further: potency means the concentration at half of the fitted maximal effect; nearly all actives have a fitted effect of over 35% in size
In short: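 HUV-EC-C human vascular endothelial cells, 1000/well, exposed to compound for 40 hr at 37 °C in complete medium. Intracellular ATP was read by CellTiter-Glo luminescence. AC50 came from Hill-equation fits of concentration-response data.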

[4] = Cellular Toxicity (caspase-3) Jurkat (AID 655); settings: Jurkat caspase-3 activation, luminescence; caspase-3 activation: at 92.2 µM (top of the series), DMSO = 0%, tamoxifen = 100%;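 further: cells exposed to compound for 16 h at 37 °C before reading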
In short: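 Luminescent Caspase-Glo 3/7 read-out (20 min, room temperature) after 16 h compound treatment at 37 C of 5000 Jurkat cells per well. AC50 derived by Hill-equation fitting, scaled between DMSO basal and 100 uM tamoxifen stimulation.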

[5] = Cellular Toxicity (caspase-3) HUV-EC-C (AID 656); further: potency means the concentration at half of the fitted maximal effect
In short: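 Luminescent Caspase-Glo 3/7 readout after 16 h, 37 °C compound exposure of HUV-EC-C endothelial cells, 1000 per well, complete medium. AC50 derived by Hill fitting, with DMSO as baseline and 100 uM tamoxifen as full activation.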

[6] = Cellular Toxicity (caspase-3) SHSY5Y (AID 657); further: potency means the concentration at half of the fitted maximal effect
In short: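 Luminescent Caspase-Glo 3/7 read-out, 1 hr room temperature, follows 16 hours of compound treatment of SH-SY5Y cells at 37 °C. Normalization: DMSO basal, 10 uM staurosporine as 100%; AC50 values from Hill-equation concentration-response fits.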

[7] = Cellular Toxicity (caspase-3) BJ (AID 658); settings: BJ fibroblasts, caspase-3 activation, luminescence; further: potency means the concentration at half of the fitted maximal effect
In short: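 Readout: Caspase-Glo 3/7 luminescence increase in BJ cells after 16 hr treatment at 37 °C. Staurosporine and tamoxifen served as positive controls; AC50 values came from Hill modelling of data normalized to DMSO and 10 uM staurosporine.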

[8] = Cellular Toxicity (caspase-3) MRC-5 (AID 659); settings: Potency: caspase-3 activation; further: potency means the concentration at half of the fitted maximal effect
In short: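 Concentration-dependent caspase 3/7 activation is measured in human normal lung fibroblasts (MRC-5) following 16-hour treatment. AC50 values come from standard Hill-equation modeling of luminescence normalized to DMSO and 10 uM staurosporine.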

[9] = Cellular Toxicity (caspase-3) Mesangial (AID 660); settings: mesangial cells, normalized: DMSO 0%, 100 µM tamoxifen 100%; at 91.7 µM (top of the series);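 further: combined caspase 3 and 7 activity read by Caspase-Glo luminescence; cells exposed to compound for 16 h before the caspase read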
In short: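 Human renal glomerular mesangial cells, 1000/well, 5 h at 37 C before 16 h compound treatment. Caspase-Glo 3/7 luminescence after 20 min; normalized to DMSO and 100 uM tamoxifen, AC50 from Hill fit.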

[10] = Cellular Toxicity (caspase-3) SK-N-SH (AID 661); settings: SK-N-SH caspase-3 activation, qHTS; caspase-3 activation: at 91.7 µM (top of the series), DMSO as zero, staurosporine as full;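 further: 0% = DMSO basal and 100% = 10 µM staurosporine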
In short: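 Human SK-N-SH neuroblastoma cells, 1500/well, were exposed to compounds for 16 hours at 37 °C. Caspase-Glo 3/7 luminescence was normalized to DMSO (basal) and 10 uM staurosporine (100%), and AC50 came from a Hill fit.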

[11] = Cellular Toxicity (caspase-3) H-4-II-E (AID 663); settings: H-4-II-E rat hepatoma; Potency: caspase-3 activation; caspase-3 activation: at 92.2 µM (top of the series), scaled: DMSO 0%, 100 µM tamoxifen 100%; further: potency means the concentration at half of the fitted maximal effect
In short: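 Apoptosis induction is scored as increased luminescence from caspase 3/7 substrate cleavage in rat hepatoma H-4-II-E cells exposed to compound for 16 hr. Activity is scaled between DMSO and 100 uM tamoxifen.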

[12] = Cellular Toxicity (caspase-3) Hek293 (AID 664); settings: HEK293 caspase-3 activation, DMSO = 0%, 100 µM tamoxifen = 100%; at 92.2 µM (top of the series);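 further: cells exposed to compound for 16 h at 37 °C before readout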
In short: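 HEK293 cells in complete medium treated 16 h at 37 °C, then Caspase-Glo 3/7 luminescence read after 20 min at room temperature. Normalized to DMSO and 100 uM tamoxifen; AC50 from Hill fit of concentration-response.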

[13] = Cell Viability - LYMP2-001 (AID 921); further: potency means the concentration at half of the fitted maximal effect; nearly all actives have a fitted effect of over 70% in size
In short: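 Cellular ATP loss read by luciferase luminescence after 24 h compound exposure at 37 C in complete medium. LYMP2-001 lymphoblastoid cells, 2500/well; qHTS concentration-response data fitted with Hill equation for AC50.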

[14] = MultiTox-Fluor Cytotoxicity Assay - LYMP1-001 - Live Cells (AID 947); further: potency means the concentration at half of the fitted maximal effect
[15] = Cell Viability - LYMP1-002 - Assay at 16 hr (AID 948); further: potency means the concentration at half of the fitted maximal effect
In short: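 ATP luminescence (CellTiter-Glo) was measured after 16 hr compound exposure at 37 C of 2500 lymphoblastoid LYMP1-002 cells per well. Concentration-response curves were fitted with the Hill equation to give AC50.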

[16] = MultiTox-Fluor Cytotoxicity Assay - LYMP1-002 - Live Cells (AID 955); further: potency means the concentration at half of the fitted maximal effect
In short: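 Human lymphoblastoid LYMP1-002 cells, 2500/well, treated 16 h at 37 C in complete medium. Live-cell protease activity via GF-AFC fluorescence (Ex/Em 405/510) after 60 min reagent incubation; AC50 from Hill fits.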

[17] = MultiTox-Fluor Cytotoxicity Assay - LYMP1-002 - Dead Cells (AID 960); settings: LYMP1-002 lymphoblastoid cells, dead-cell protease fluorescence; cytotoxicity (dead cells): at 46.1 µM (top of the series); further: potency means the concentration at half of the fitted maximal effect; nearly all actives have a fitted effect of over 60% in size
In short: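 Human lymphoblastoid LYMP1-002 cells, 2500/well, treated 16 h at 37 C; dead-cell protease cleavage of bis-AAF-R110 read by fluorescence (485/520); normalized to DMSO and 15 uM tetraoctylammonium bromide; AC50 from Hill fit.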

[18] = MultiTox-Fluor Cytotoxicity Assay - LYMP1-003 - Live Cells (AID 962); further: potency means the concentration at half of the fitted maximal effect
In short: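 LYMP1-003 lymphoblastoid cells, 2500/well in complete medium, treated 16 h at 37 C; live-cell protease cleavage of GF-AFC read by fluorescence (Ex/Em 405/510) after 60 min reagent; AC50 from Hill fits of concentration-response.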

[19] = Cell Viability - LYMP1-003 - Assay at 40 hr (AID 964); further: potency means the concentration at half of the fitted maximal effect; nearly all actives have a fitted effect of over 60% in size
In short: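 LYMP1-003 human lymphoblastoid cells, 2500/well, preincubated 5 h at 37 C, then treated with compound for 40 h at 37 C. Intracellular ATP read by CellTiter-Glo luminescence after 30 min at room temperature; AC50 from Hill-equation fits.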

[20] = Cell Viability - LYMP2-005 (AID 967); further: potency means the concentration at half of the fitted maximal effect
In short: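 LYMP2-005 human lymphoblastoid cells (2500/well) were treated with compounds for 24 h at 37 C. Intracellular ATP was then measured by CellTiter-Glo luminescence after 30 min at room temperature. AC50 values came from Hill-equation fits of qHTS concentration-response data.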

[21] = Cell Viability - LYMP2-021 (AID 974);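 further: potency means the concentration at half of the fitted maximal effect; compound exposure lasts 24 hours at 37 °C; nearly all actives have a fitted effect of over 55% in size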
In short: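 Human lymphoblastoid LYMP2-021 cells, 2500/well in complete medium, treated 24 hours at 37 C. Intracellular ATP by CellTiter-Glo luminescence (30 min, RT); AC50 from Hill fits of concentration-response.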

[22] = Cell Viability - LYMP2-025 (AID 976); settings: LYMP2-025 lymphoblastoid cell viability; activity change, negative = cytotoxicity: at 92.2 µM (top of the series); further: potency means the concentration at half of the fitted maximal effect
In short: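 Human lymphoblastoid LYMP2-025 cells, 2500/well, exposed 24 h at 37 C in complete medium in 1536-well qHTS. Viability as cellular ATP by CellTiter-Glo luminescence; AC50 from Hill fits of concentration-response data.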

[23] = Cell Viability - LYMP2-010 (AID 981);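 further: potency means the concentration at half of the fitted maximal effect; cells exposed to compound for 24 hours at 37 °C; nearly all actives have a fitted effect of over 55% in size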
In short: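 Human lymphoblastoid LYMP2-010 cells (2500/well) treated 24 h at 37 C in complete medium; viability read as intracellular ATP by CellTiter-Glo luminescence. AC50 from Hill fits of concentration-response data; tetraoctylammonium bromide positive control.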

[24] = Cell Viability - LYMP2-020 (AID 986); settings: activity change, negative = viability loss: at 92.2 µM (top of the series); further: potency means the concentration at half of the fitted maximal effect; nearly all actives have a fitted effect of over 55% in size
In short: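 Human lymphoblastoid LYMP2-020 cells (2500/well) preincubated 5 h at 37 C, then treated 24 h at 37 C. Viability measured as intracellular ATP by CellTiter-Glo luminescence after 30 min at room temperature; AC50 from Hill fits.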
Tags describe the fitted curve by direction and shape.

Cc1cc(O)c(C(C)(C)C)cc1Sc1cc(C(C)(C)C)c(O)cc1C
active: Potency [1] 33.7 µM | Potency [3] 39.8 µM | Potency [5] 50.1 µM | caspase-3 activation [9] 140% | Potency [11] 31.6 µM | caspase-3 activation [12] 230% | Potency [13] 39.8 µM | Potency [14] 31.6 µM | Potency [15] 50.1 µM | Potency [16] 25.1 µM | Potency [17] 31.6 µM | Potency [18] 39.8 µM | Potency [19] 39.8 µM | Potency [21] 31.6 µM | Potency [22] 39.8 µM | Potency [23] 31.6 µM | Potency [24] 31.6 µM
inconclusive: activity change, negative = cytotoxicity [2] -74.6% | caspase-3 activation [4] 43.1% | Potency [6] 39.8 µM [rising, partial curve] | Potency [7] 63.1 µM [rising, partial curve] | Potency [8] 50.1 µM [rising, partial curve] | caspase-3 activation [10] 69.9% | Potency [20] 39.8 µM [cytotoxic, full curve, poor fit]

Reference: PubChem BioAssay (NCATS)
